Where “and” joins values, the source holds several entries; their conditions need not be identical. Equal entries are not always repeated. Among all 48,000 compounds or so, about 1,200 (2.5%) were called active. Inconclusive results (about 2%) are left out.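 The calls were made as follows: active = activation of at least 60% and not above a set upper limit (about 1 call in 100 departs from these limits); inconclusive = activation of 40% to 60%, or above that upper limit; inactive = activation under 40%.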 This is one part of the list.

This assay deals with Probable G-protein coupled receptor 32 (Homo sapiens) (UniProt O75388). Kind of assay: qHTS for Agonists of Human Resolvin D1 Receptor DRV1. Also: 0% is about no effect. Particulars: CHO-K1 GPR32 beta-arrestin PathHunter luminescence, 90 min; at 76.9 µM; active compounds read high; zero percent set by DMSO-only wells. Put shortly: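 Engineered CHO-K1 line co-expressing GPR32-ProLink and EA-beta-arrestin. Compound treatment lasted 90 min at 37 °C. Luminescence was recorded after 1 h with substrate at ambient temperature, relative to DMSO basal wells.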
UniProt O75388, sequence (O75388 whole entry, looked up): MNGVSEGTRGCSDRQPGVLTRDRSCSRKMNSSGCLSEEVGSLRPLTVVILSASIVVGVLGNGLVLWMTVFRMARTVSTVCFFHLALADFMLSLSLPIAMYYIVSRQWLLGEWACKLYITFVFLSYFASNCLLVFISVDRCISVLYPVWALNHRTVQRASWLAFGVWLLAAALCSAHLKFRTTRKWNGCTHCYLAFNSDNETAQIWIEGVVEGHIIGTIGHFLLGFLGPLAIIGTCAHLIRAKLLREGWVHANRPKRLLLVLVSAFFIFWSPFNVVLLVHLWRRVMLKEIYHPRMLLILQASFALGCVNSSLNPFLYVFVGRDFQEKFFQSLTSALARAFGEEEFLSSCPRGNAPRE
A general note: In qHTS, concentration-response curves come from the screen itself.
Regarding `CCCCc1nn2c(=O)cc(COC(=O)c3ccc(NC(=O)C4CCCCC4)cc3)nc2s1`, the activation is inactive: -11.5%. For `Cc1ccc2occ(-c3cc(-c4ccc(Cl)cc4)nc4c3COc3ccccc3-4)c(=O)c2c1` the value was inactive: -4.92%; for `Cc1ccc(N(C)C(=O)C2CCCN(c3ncnc4c3nc3n4CCCCC3)C2)cc1C` (stereo not drawn), inactive: -5.97%. For `CCCn1cc(S(=O)(=O)c2ccc(CC)cc2)c(=O)c2ccccc21` the value was inactive: 36.9%. `O=C(O)CCc1ccc(-c2ccccc2)n1CC(=O)Nc1ccccc1C(F)(F)F`: the activation is inactive: -18.3%. For `COc1ccccc1CNC(=O)CCCCn1c(=O)c2ccccc2n(CC(=O)Nc2cc(Cl)ccc2C)c1=O` the value was inactive: 7.63%; for `CCCCCC(O)c1cccc(OCc2ccc3ccccc3n2)c1` (stereo not drawn), inactive: -1%; for `O=c1c2[nH]c3ccccc3c2nc(SCc2cccc(F)c2)n1-c1ccccc1`, inactive: -21.2%. Take `COc1ccc2c(c1)c1c(c(=O)n(-c3ccccc3C)c(=O)n1CC(=O)Nc1c(C)cccc1C)n2C`: the activation was inactive: 20.1%. Regarding `Cc1ccccc1Nc1nn2c(=O)c3ccc(C(=O)N4CCCC(C)C4)cc3nc2s1` (stereo not drawn), the activation is inactive: 0.842%. `COc1cccc(OC)c1C(=O)Nc1ccc2c(c1)N(C(C)=O)CCC2`: the activation is inactive: -21.9%.

With `O=C(CCc1ccccc1)NC1CC(=O)N(c2ccccc2)C1` (stereo not drawn), the activation was inactive: 1.77%. With `Cc1ccc(NC(=O)CCC(=O)N2Cc3ccccc3Oc3ncccc32)cc1`, the activation is inactive: 3.39%. To `COc1ccc(NC(=O)Cn2c(SCc3ccc(C)cc3)nc3cccnc32)c(OC)c1` belongs inactive: 14.2%. For the compound `COc1ccc(-c2cnc(C)o2)cc1S(=O)(=O)Nc1ccc(C)c(N(C)C)c1`, the activation was inactive: 5.24%.

As to `CC(C)(C)c1ccc(C(=O)CCCN2CCC(OC(c3ccccc3)c3ccccc3)CC2)cc1`, the activation is inactive: 32% and inactive: -16.2%. For `O=C1CC(c2ccc(Cl)cc2)Sc2nc(-c3ccc(F)cc3)nn21` (stereo not drawn) the value was active: 119%; for `CCOc1ccc(CNS(=O)(=O)c2cc(-c3cc(C)no3)ccc2C)cc1OC`, inactive: -11.5%; for `CCc1ccc(-n2c(=O)c3c4c(sc3n(CC(=O)NC(C)CC)c2=O)CCCC4)cc1` (stereo not drawn), inactive: -6.51%. On to `Cn1c(=O)[nH]c2cc(-c3noc(-c4ccc(F)cc4)n3)ccc21`, for which the activation is inactive: -5.28%. For `CCn1c(=O)cc(SCC(=O)NCCc2ccc(OC)cc2OC)c2ccccc21` the value was inactive: 41.9%; for `COCCCNC(=O)CSc1nc(-c2ccccc2)[nH]c1-c1ccc(C)cc1`, inactive: -18.9%. For `CCCn1c(=O)c2sccc2n2c(CCCC(=O)Nc3cccc(CC)c3)nnc12` the value was inactive: -3.34%; for `CCc1cnc2c(c1SCC(=O)Nc1ccc(C)cc1C)c(=O)n(C)c(=O)n2C`, inactive: 1.09%. For `CN1C(=O)Cc2cc(S(=O)(=O)NCCc3ccccc3)ccc21` the value was inactive: -6.97%.

Consider `CCc1ccc(OCC(=O)N(Cc2ccc(OC)cc2)C2CCS(=O)(=O)C2)cc1` (stereo not drawn), for which the activation is inactive: -7.78%. To `O=C(CCn1c(=O)c2cccn2c2cccnc21)N1CCN(c2cccc(Cl)c2)CC1` belongs inactive: 6.73%; to `Cc1cccc(-c2nc(SCC(=O)Nc3ccc4c(c3)OCO4)c(-c3ccccc3)[nH]2)c1`, inactive: -24.2%. To `CCN1CCN(C(=O)c2ccc3c(c2)N(Cc2cccc(F)c2)C(=O)c2ccccc2S3)CC1` belongs inactive: -9.5%. As for `COCCCNC(=O)Cn1cnc2sc(C)c(S(=O)(=O)N3CCN(c4ccccc4OC)CC3)c2c1=O`, the activation is inactive: 1.79%. To `CCOC(=O)c1cc(-c2ccc(C)cc2)n(CCC(=O)Nc2ccc(OC)c(OC)c2)c1C` belongs inactive: 4.2%; to `COc1ccc(CCNC(=O)c2ccc3c(c2)N(Cc2ccc(Cl)cc2)CCS3)c(OC)c1`, inactive: 6.87%; to `CCCCCN1C(C(=O)c2ccccc2)=C(NC(=O)c2ccccc2Cl)c2ccccc2S1(=O)=O`, inactive: -13.4%. To `CC(=O)c1ccc(N2CCN(S(=O)(=O)c3ccc(-c4cc(C)no4)s3)CC2)cc1` belongs inactive: -1.75%; to `Cc1cc(C)c(S(=O)(=O)n2cnc(C)c2)c(C)c1`, inactive: 2.52%; to `COC(=O)c1c(NC(=O)COc2cc(C)ccc2C(C)C)sc2c1CCC(C)C2` (stereo not drawn), inactive: -5.02%. `CCOC(=O)C1CCN(S(=O)(=O)c2ccc3c(c2)NC(=O)C(C)C(=O)N3)CC1` (stereo not drawn): the activation is inactive: 8.5%. To `CCOC(=O)c1ccc(NC(=O)CC2NCCNC2=O)cc1` (stereo not drawn) belongs inactive: -26.5%; to `Cc1ccc2nc3c(cc(C(=O)NC4CCCCC4)c(=N)n3C(C)C)c(=O)n2c1`, inactive: -4.43%.

With `CCn1c2ccccc2c2cc(NC(=O)COc3ccc(C)c(C)c3)ccc21`, the activation is inactive: -23.5%. For `COc1ccc(-c2nc3n(n2)C(=O)CC(c2ccc(Cl)cc2)S3)cc1` (stereo not drawn) the value was inactive: -2.9%.

Turning to `CCC(C)NC(=O)C1CCC(CNS(=O)(=O)c2ccc(Cl)cc2)CC1` (stereo not drawn), the activation is inactive: -4.6%. Take `Cc1ccc(-c2ccc(=O)n(CC(=O)NCc3ccc(F)cc3)n2)cc1`: the activation is inactive: -19.5%. Take `CC1=C(C(=O)Nc2ccccc2C)C(c2cccnc2)n2nc(SCc3ccccc3F)nc2N1` (stereo not drawn): the activation is inactive: 17.3%. With `N#Cc1cccc(NC(=O)C2CCN(c3ncccn3)CC2)c1`, the activation was inactive: 14.7%.

Regarding `Cc1cccc(NC(=O)CCn2nc(-c3ccccc3)c3ccccc3c2=O)c1`, the activation is inactive: -22.6%. As for `CCOc1cc(C(=O)Nc2ccc(-c3nc4ncccc4o3)cc2C)cc(OCC)c1OCC`, the activation was inactive: 6.77%.

As to `CCS(=O)(=O)CCSc1nc(-c2ccc(Br)cc2)cc(-c2ccccc2)c1C#N`, the activation was inactive: -0.132%.

On to `CCN1CCC(N(Cc2ccc3c(c2)OCO3)C(=O)Nc2ccc(Br)c(C)c2)CC1`, for which the activation was active: 80%. For `Cc1nn2c(-c3cccc(NC(=O)c4ccc(Cl)cc4)c3)nnc2c2ccccc12` the value was inactive: 29.2%; for `CCS(=O)(=O)N1CCc2cc(C(=O)Nc3cc(Cl)ccc3C)ccc21`, inactive: 21.5%. For `COc1ccc(-n2c(-c3ccco3)nc3c(cnn3-c3ccc(C)cc3)c2=O)cc1` the value was inactive: -5.24%; for `CCn1c(=O)n(CC)c2cc(N3CCCCC3)c(NC(=O)Nc3cc(Cl)ccc3OC)cc21`, inactive: -33.5%.

These data come from PubChem BioAssay AID1346428 (National Center for Advancing Translational Sciences (NCATS), 2018).
